Measurements published in the supplement of paper PMC11417369.
The list shows a part of the results.

tested on: PfHDP1 homeodomain (GST-tagged); assay: gcPBM binding intensity (ln(normalized median fluorescence intensity)); higher = stronger DNA binding
Summary of the method: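 Binding of GST-tagged P. falciparum DNA-binding domains, expressed in E. coli and used at about 25 μg on average, was carried out for 1 h in 1× PBS containing 1% milk, 0.2 mg/ml BSA, 0.5% salmon testes DNA and 0.03% Triton X-100. The target was an Agilent 4 × 180k array of primer-extended double-stranded 36-bp intergenic genomic probes plus negative controls, read with Alexa488 anti-GST antibody at 488 nm. Binding intensity is the highest Masliner-normalised natural-log median intensity across replicate spots of either probe orientation.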

Row | Sequence | gcPBM binding intensity (ln)
1 | GTATATATATATATATATATATATTTTTATTTATTT [CACACA_negctrl_site589] | 7.23
2 | AATATAAGTAGTACAGTGCATATAATAATTAGAAGA [GTGCAC_site9485] | 9.29
3 | CCATAAAAAGGATACACACACACACGCACATATATA [CACACA_site6550] | 7.22
4 | TTGATTTATATTTAATGTACATTTTTACAGAAAATT [XGTACX_site2747] | 6.47
5 | GATTAAACACAAAGAAGTACGGACATAAAAAAAAAA [XGTACX_site3686] | 6.12
6 | ACATGTTAACTAAATGTACACACCTATGTTGATGTA [CACACA_site1821] | 6.59
7 | TTTACTCCTACAACATGTACATAAAATAAATTTTTT [XGTACX_site5010] | 7.12
8 | TTATTTACAACTTTTTTTTTTTTATTTTATTTTATT [CACACA_negctrl_site341] | 6.33
9 | ACATAGCAATGTTTCACACACAAGAAAAAATACAAT [CACACA_site2379] | 6.98
10 | GAAATGTGGTAATATACACACACGCATATATTTATA [CACACA_site6285] | 6.54
11 | TTTGAACTCTTAAGTGGTACAAATTTGTATTTTCTC [XGTACX_site2322] | 6.52
12 | TATAAATAAAAATATACACACTGTATTATTGTAATA [CACACA_site7721] | 6.24
13 | AATGGAATATATATTTGTACATAAATATTATAATAA [XGTACX_site8524] | 6.57
14 | ACATATTATATAACTCGTACTCGTAAAATATGTTGT [XGTACX_site2240] | 6.63
15 | TTCTTCTGTTTTATTACACACCATTTTGCGTATACA [CACACA_site2070] | 7.65
16 | GTTCTTTTATATATTTGTACATATTTATATATATTG [XGTACX_site4078] | 7.18
17 | GTCATAAATGTACGCACACATACATAAACATATACA [CACACA_site650] | 7.24
18 | CATTCTTGTTTAAAAAGTACATAAACATATATATAT [XGTACX_site1751] | 8.22
19 | TAAATTAATATGTATCGTACAATATATAAAACGATG [XGTACX_site2818] | 6.53
20 | AAATATAAAATTTATTGTACATTATATATAATATAT [XGTACX_site1416] | 6.31
21 | TATTATAATATTTATACACACATAATTTTGATAAAT [CACACA_site583] | 6.45
22 | TGATATATTTATATTACACACTTAAACGAAAAAAAA [CACACA_site3021] | 6.54

Row | Sequence | gcPBM binding intensity (ln)
23 | ATATATATATTATATGCACACGTTAAAATTTCATAT [CACACA_site4552] | 10.3
24 | TAAAAATATTAATAAACACACAATGAGATATTGAAT [CACACA_site3153] | 6.21
25 | ATATTATATATATAGGTGCGAGTATTTTATAAATAT [GTGCAC_site9889] | 6.93
26 | TAAGTATACACATACACACACACACTAATAAAAAAA [CACACA_site8035] | 6.81
27 | TATACACCCGGACACACACACATATATATATATATA [CACACA_site5030] | 9.36
28 | AAAAAAAAAAAAATCACACACAATATGAATTTATAG [CACACA_site601] | 6.14
29 | AATACAATTTCTAGCACACAAAATATTATTATAATT [CACACA_site3223] | 6.5
30 | AAAAAACAATCTCATACACACTAGGGATTAATTATT [CACACA_site5051] | 6.31
31 | TATAGAAGCGTTCACACACACACATACATACCCATA [CACACA_site4915] | 6.97
32 | TTATATATATTTAAATTTTATCTCACATATATATAT [TGCATGCA_negctrl_site275] | 8.34
33 | TCCCTAAAAAATGATAAATGGAGACAATTCCGACAA [GTGCAC_negctrl_site209] | 6.16
34 | ATATATATAACATATACACACGTTCATATATATATA [CACACA_site4416] | 8.66
35 | TTACAAGTAAAAGGTACACACATTATATATACAAAT [CACACA_site8290] | 6.75
36 | TAATTTTTATTTTATTTTATTTTTTTTTTTTTTATT [CACACA_negctrl_site1671] | 5.95
37 | TATAAAAAATAAAAAGTTTAATGAATATTTCTTTTA [TGCATGCA_negctrl_site379] | 5.53
38 | TCACATGGAAAAAAGTGTACATAATTATGTATAAAT [XGTACX_site2827] | 6.89
39 | ACAAGACAGATATATACACACATACATACATACATA [CACACA_site7472] | 7.03
40 | TTTAACTTATTCAATGCACACATTTTAATAAGATAT [CACACA_site1967] | 8.41
41 | TTTCTTAAAAAAAAAAAAAAAAGAAGATAAATAAAA [CACACA_negctrl_site289] | 5.97
42 | ATATTTATTTATATTACACACATGTGCAATTAAACT [CACACA_site6928] | 10.7
43 | CTAGCAAATACATACACACACACACCGATACATATA [CACACA_site9164] | 7.03
44 | ATGGATAACAATATGTGTACACATTTATATCTCCAC [XGTACX_site5457] | 6.72

Row | Sequence | gcPBM binding intensity (ln)
45 | ATACATTTTTTTTATACGCACACGTCATACTTTTAA [CACACA_site1638] | 7.53
46 | AAGCATGGATATTTTACACACATTTCCACGTAACAA [CACACA_site3141] | 6.36
47 | ATATAATAGAAGTGTACACACATATTTATGTCTGTA [CACACA_site3121] | 6.74
48 | ATATTTTTTGGAAAGTGTACAATATTATATATTAAA [XGTACX_site2163] | 6.18
49 | GAAATACCGGAAAGCAAACACACATTTTAAAACCAT [CACACA_site3861] | 6.73
50 | ATACATATATATAGGTGTACATATAATATATATATA [XGTACX_site2228] | 8.33
51 | AACCATGTTAACAATGCATGCATCACTATATAAACG [TGCATGCA_site421] | 7.07
52 | TTTAATTTTACATGAGAAACATATTACAATAAAATA [GTGCAC_negctrl_site606] | 6.15
53 | TGACTTTGTTGAATTTGTCCTCTTAACTCATAATAT [GTGCAC_negctrl_site217] | 6.21
54 | TTCTGTGTCTAAAAATGTACGGGAATATATAAAAGT [XGTACX_site2090] | 7.37
55 | ACATAATATATATATTAACACACATCCTTTTATGTA [CACACA_site8317] | 6.92
56 | ACTTATATTATAAATTGTACAAATATTATATTTGGT [XGTACX_site1424] | 6.82
57 | TTATTTTGTTTATTATGTACACAAAGACATAATAAT [XGTACX_site5648] | 6.58
58 | CACTTACATAATTATTGTACAGATATTATCAAATAA [XGTACX_site567] | 6.5
59 | TTTTTTTTTTTTAAATGTACTTATCAACTTTTATAT [XGTACX_site4641] | 6.27
60 | AAAAAAAAAAGACACACACACACACGCATATACATA [CACACA_site7289] | 6.75
61 | TACGTAAAAATAATACGTACATATATTTATAGAAAA [XGTACX_site4959] | 6.35
62 | ACGGACAATACGGAAACACACAAGTTATTTTATCAT [CACACA_site7310] | 6.21
63 | AATAAAATAATCCAAGTGCATATGTAAAAATACATT [GTGCAC_site9576] | 7.92
64 | AATATATGTAAATGGACACACACATATATATATATA [CACACA_site9220] | 9.25
65 | CTCAATATTATTACTACACACAAATTAATATTTTCC [CACACA_site55] | 6.59
66 | ATATATACTATATTTTAACACACAAAAAAAAAAAAT [CACACA_site8277] | 6.5

Row | Sequence | gcPBM binding intensity (ln)
67 | TGTTAATTGAATGCAATCTGAATTTTTTTACATAAT [CACACA_negctrl_site1002] | 6.24
68 | CACCCACCCAGACACACACACACAAAAAAAAAAAGA [CACACA_site499] | 6.72
69 | CTTTTTTCAAGACACACACACAAGAAAATATAAATA [CACACA_site7455] | 7.03
70 | CGGCACGTGATATATACACACATATAGATATATACA [CACACA_site6408] | 6.54
71 | TGGATAATGAATGATGCACACTAAAAATATTCTACA [CACACA_site5912] | 8.46
72 | TATTTGTAAATCGATACACACATATATCTTAATATA [CACACA_site4273] | 6.28
73 | TCAAGTATTAAAATGGGTACATAAATATGTGTATAT [XGTACX_site5884] | 6.63
74 | CATATAAAAAAATAGACACACATTTTATATAATACG [CACACA_site1896] | 6.64
75 | TATTTTTCTTTTTTTTTTTTTTTTATATTATACGTG [XGTACX_negctrl_site363] | 5.94
76 | CTTTTTAAATTAAAATGTACAGAAAAATATTATTAT [XGTACX_site8760] | 6.3
77 | GAAAATCAGTTAAACACACACATAAAAAAAAAAAAA [CACACA_site2875] | 6.24
78 | ATCATATGTATGCATACACACAAAAAGTTATTTATA [CACACA_site6325] | 6.86
79 | TGGGAAAACCCCAGAAGTACGCTTAATATAAAAAAT [XGTACX_site697] | 6.19
80 | ATAATGTTCCTATGATGTACTTATAATTATCATTTT [XGTACX_site4017] | 6.74
81 | AAGAGGTTATTACATTCACATAACATCAATATACGT [GTGCAC_negctrl_site264] | 6.13
82 | ATTAAAATAATATAAACACACATATACTTTTTTCTA [CACACA_site565] | 6.25
83 | TATTGTTCGTTTAAGGTGCTATTGTTTGCAAAATAT [GTGCAC_site9412] | 8.8
84 | ATTTAAAAAAAAATGGCACACATTTTAATTTTATGT [CACACA_site1740] | 5.92
85 | TTTTTAATGATCAGACGTACAGTTATGAAGAAATTT [XGTACX_site6394] | 6.66
86 | TTTTTGTTTCGTTACGCATGCCAAAAGTAAAAATAT [TGCATGCA_site536] | 6.86
87 | TTGTGTCATATATTTTGTAATCAAAATAATTTTATT [TGCATGCA_negctrl_site307] | 6.31
88 | TATTATAAATTAATTTTAAACTTTATTATTATGATA [GTGCAC_negctrl_site389] | 6.25
